Reference: patent publication US20230340087A1 (published 2023)

Molecular target: Clostridium difficile toxin A (TcdA) (Clostridium difficile)
Experiment: cell-based or functional assay

B1: ABAB-IgG1, tetra-specific, octameric binding agent (AH3/5D-IgG1 heavy chain + AA6/E3-IgG1 kappa chain) (other)
heavy: QVQLVETGGGLVQPGGSLRLSCAASGFTLDYSSIGWFRQAPGKEREGVSCISSSGDSTKYADSVKGRFTTSRDNAKNTVYLQMNSLKPDDTAVYYCAAFRATMCGVFPLSPYGKDDWGKGTLVTVSSGGGGSGGGGSGGGGSQVQLVESGGGLVQPGGSLRLSCEASGFTLDYYGIGWFRQPPGKEREAVSYISASARTILYADSVKGRFTISRDNAKNAVYLQMNSLKREDTAVYYCARRRFSASSVNRWLADDYDVWGRGTQVAVSSASTKGPSVFPLAPSSKSTSGGTAALGCLVKDYFPEPVTVSWNSGALTSGVHTFPAVLQSSGLYSLSSVVTVPSSSLGTQTYICNVNHKPSNTKVDKRV[in this place human IgG1 Fc]
light: QLQLVETGGGLVQPGGSLRLSCAASGFTFSDYVMTWVRQAPGKGPEWIATINTDGSTMRDDSTKGRFTISRDNAKNTLYLQMTSLKPEDTALYYCARGRVISASAIRGAVRGPGTQVTVSSGGGGSGGGGSGGGGSQVQLVESGGGLVQTGGSLRLSCASSGSIAGFETVTWSRQAPGKSLQWVASMTKTNNEIYSDSVKGRFIISRDNAKNTVYLQMNSLKPEDTGVYFCKGPELRGQGIQVTVSSRTVAAPSVFIFPPSDEQLKSGTASVVCLLNNFYPREAKVQWKVDNALQSGNSQESVTEQDSKDSTYSLSSTLTLSKADYEKHKVYACEVTHQGLSSPVTKSFNRGEC
  neutralizing activity against cytopathic effect of TcdA (100 ng/ml) on Vero cells, fold over Merck anti-TcdA antibody: ≥ 1000 fold
